Measurements: PubChem BioAssay AID1671194 (National Center for Advancing Translational Sciences (NCATS), 2021)
In all, about 140,000 compounds went through this assay and about 240 (0.17%) were called active. This list was built around the results that the source calls inconclusive (neither active nor inactive); the mix of calls is not that of the screen. The call rests on the fitted dose curve; in most records, active means well fitted inhibition curve with a large enough effect; inconclusive means small, poorly fitted or top-dose-only effect; inactive means no such curve, though single readings can be large or run the other way. Potencies of inconclusive entries are doubtful fits and often do not repeat.
Potency means the concentration at half of the fitted maximal effect; tags describe the fitted curve by direction and shape.

Assay: Primary qHTS assay for inhibitors of alpha-synuclein gene (SNCA) expression; further: nearly all actives have a fitted effect of over 45% in size;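 on activity change, negative = inhibition: plate controls were DMSO cells for no effect and cell-free wells for full effect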
Settings: HEK-293 SNCA-luciferase knock-in, luminescence, 24 h; activity change, negative = inhibition: at 57.2 µM (top of the series) unless noted
For `Cn1ccc(C(=O)N2CCCC(CCc3ccccc3C(F)(F)F)C2)n1` (stereo unspecified), the Potency was inconclusive: 39.8 µM [inhibitor, single point].
For `CNC(=O)CCn1ncc2cc(OCc3ccccc3-c3cccc(OC)c3F)ccc21`, the Potency was inconclusive: 12.6 µM [inhibitor, partial curve, poor fit].
For `O=C(c1ccsc1)N1CCN(c2cc(-c3cccs3)[nH]n2)CC1`, the Potency was inconclusive: 7.94 µM [inhibitor, single point].
With `COc1ccc(CNC(=O)c2cn3ccnc(-c4ccccc4)c3n2)cc1OC` the “activity change, negative = inhibition” value was inactive: -4.09%.
In the case of `O=C(N[C@H]1CO[C@H]2[C@@H]1OC[C@@H]2n1nnnc1Oc1ccc2c(c1)OCO2)c1ccc(C(F)(F)F)cc1`, the “activity change, negative = inhibition” value is reported as inactive: -16.1%.
In the case of `Brc1ccc(-c2cn3cc(Cc4ccccc4)sc3n2)cc1`, the “activity change, negative = inhibition” value is reported as inactive: 80.2%.
In the case of `COC[C@@H]1CN(C(=O)COc2ccc(F)cc2)C[C@H]1c1nc(C)no1`, the “activity change, negative = inhibition” value is reported as inactive: -5.51%.
With `O=C(NCCc1ccc(Cl)cc1)c1ccc2nnc(Cc3ccc(Cl)cc3)n2c1` the “activity change, negative = inhibition” value was inactive: -5.55%.
In the case of `CNC(=O)CCn1ncc2cc(OC3CCc4cccc(-c5ccccc5F)c43)ccc21` (stereo unspecified), the Potency is reported as inconclusive: 22.4 µM [inhibitor, partial curve, poor fit].
With `COc1cccc(CC(=O)Nc2c(C(=O)N3CCN(c4ccccc4)CC3)oc3ccccc23)c1` the Potency was inconclusive: 15.8 µM [inhibitor, partial curve, poor fit].
In the case of `Cc1ccc(CNC(=O)CCCCCn2c(=O)c3sccc3n(CC(=O)C(C)(C)C)c2=O)cc1`, the Potency is reported as inconclusive: 0.158 µM [inhibitor, partial curve, poor fit].
In the case of `COc1ccc(C(=O)N2CCOCC3(C2)CN(c2ccccc2)C3)cc1OC`, the “activity change, negative = inhibition” value is reported as inactive: 23% [at 87.6 µM].
With `COCCCNC(=O)c1cnc2n[nH]c(-c3ccccc3)c2n1` the Potency was inconclusive: 20 µM [inhibitor, partial curve, poor fit].
For `Cc1ccccc1-c1[nH]nc2ncc(-c3ccccc3O)nc12`, the “activity change, negative = inhibition” value was inactive: -26.5% [at 87.6 µM].
In the case of `Cc1ccc(CN2C[C@H]3CN(Cc4ccc(C(=O)O)cc4)CCN3C2=O)cc1`, the “activity change, negative = inhibition” value is reported as inactive: -29.3% [at 87.6 µM].
In the case of `COc1cc(C(=O)NC2CCCc3c2[nH]c2ccccc32)cc(OC)c1OC` (stereo unspecified), the Potency is reported as inconclusive: 39.8 µM [inhibitor, single point].
For `COCCNC[C@@H]1C=C(C)[C@H](Cc2nnc(-c3ccc(OC)cc3)o2)C[C@H]1C(C)C`, the Potency was inconclusive: 1.26 µM [inhibitor, single point].
In the case of `COc1ccc(-c2cc(N3CCCN(C(=O)c4cccc(F)c4)CC3)n[nH]2)cc1`, the “activity change, negative = inhibition” value is reported as inactive: 8.22%.
For `Cc1cccc(C(=O)N2CCC3(CC2)c2nc[nH]c2CCN3CC(C)C)n1`, the Potency was inconclusive: 0.891 µM [inhibitor, full curve, poor fit].
In the case of `O=C(O)C1(Cc2ccccc2F)CCCN(c2ncccn2)C1` (stereo unspecified), the “activity change, negative = inhibition” value is reported as inactive: -19.1%.
With `O=C(Cc1cccn1-c1ccccc1)N1CCOCC1` the Potency was inconclusive: 7.08 µM [inhibitor, single point].
In the case of `Cc1ccccc1C(=O)NCc1nnc2cc(-c3nc(C4CC4)no3)ccn12`, the Potency is reported as inconclusive: 4.47 µM [inhibitor, partial curve].
For `Cc1ccc(C)c(NC(=O)Cn2c(=O)n(CCCS(=O)(=O)C3CCCCC3)c(=O)c3ccccc32)c1`, the Potency was inconclusive: 3.98 µM [inhibitor, single point].
In the case of `O=C(Cn1c(-c2cccs2)cc2cc(Cl)ccc21)N1CCCCC1`, the Potency is reported as inconclusive: 39.8 µM [inhibitor, single point].
In the case of `O=C(Nc1cccc(-c2ccc(N3CCOCC3)nn2)c1)Nc1ccccc1C(F)(F)F`, the Potency is reported as inconclusive: 39.8 µM [inhibitor, single point].
For `CN(C(=O)CSc1nc2ccc(NC(=O)c3cccs3)cc2s1)c1ccccc1`, the Potency was inconclusive: 39.8 µM [inhibitor, partial curve, poor fit].
In the case of `CCc1ccc(CNC(=O)C2CCN(C(=O)c3ccc(-n4c(C)cc5ccccc54)s3)CC2)cc1`, the Potency is reported as inconclusive: 39.8 µM [inhibitor, single point].
For `COc1cc(O)ccc1CN1CCCC2(Cc3ccccc3CNC2=O)C1` (stereo unspecified), the Potency was inconclusive: 39.8 µM [inhibitor, single point].
In the case of `O=C1CN(C(=O)c2c(F)cccc2Cl)C(c2ccc(F)cc2)c2cc(Br)ccc2N1` (stereo unspecified), the Potency is reported as inconclusive: 28.2 µM [inhibitor, single point].
With `CCc1noc(-c2cccn3c(CNC(=O)c4cccc(C)c4)nnc23)n1` the Potency was inconclusive: 14.1 µM [inhibitor, partial curve, poor fit].
For `Cc1ccccc1-c1cnc2[nH]cc(CC(=O)Nc3ccccc3)c2c1`, the Potency was inconclusive: 56.2 µM [inhibitor, single point].
For `COCCNC(=O)C(C)[C@@H]1CC[C@@]2(C)CC[C@H](NC(=O)c3ccccc3)[C@@H](C)[C@@H]2[C@H]1O` (stereo partly specified), the Potency was inconclusive: 12.6 µM [inhibitor, single point].
In the case of `Cc1ccc(NC(=O)C(=O)NCC(c2ccc3c(c2)OCO3)N2CCN(C)CC2)cc1C` (stereo unspecified), the Potency is reported as inconclusive: 25.1 µM [inhibitor, partial curve, poor fit].
With `CCN(CC)S(=O)(=O)c1ccc2c(c1)c(=O)c(C(=O)N1CCN(c3ccccc3OC)CC1)cn2C` the Potency was inconclusive: 5.01 µM [inhibitor, single point].
In the case of `Cc1ccc(OCc2cc(=O)n3c(-c4ccccc4)csc3n2)cc1`, the Potency is reported as inconclusive: 7.08 µM [inhibitor, single point].
With `Cn1cc(CC(=O)N2CCCc3ncc(C(=O)Nc4cccc(C(F)(F)F)c4)cc32)c2ccccc21` the “activity change, negative = inhibition” value was inactive: 3.36%.
With `COc1ccc(C(=O)N2CCC(Cc3nc(C(C)C)no3)CC2)cc1` the Potency was inconclusive: 17.8 µM [inhibitor, partial curve, poor fit].
For `c1cncc(-c2nc3ncccc3[nH]2)c1`, the Potency was “inactive”.
In the case of `CC#CC(=O)N1CCCC(N2CCN(c3cccc(Cl)c3)CC2)C1` (stereo unspecified), the Potency is reported as inconclusive: 8.91 µM [inhibitor, single point].
With `CNC(=O)N1CCC(C2CCN(C3CCN(C(C)=O)CC3)C2)CC1` (stereo unspecified) the Potency was inconclusive: 39.8 µM [inhibitor, single point].
With `COCCNc1nc2c(S(=O)(=O)c3ccccc3)nnn2c2ccccc12` the “activity change, negative = inhibition” value was inactive: -1.15%.
